Reference: PubChem BioAssay AID2546 (National Center for Advancing Translational Sciences (NCATS), 2010)
Among all 310,000 compounds or so, about 11,000 (3.5%) were called active. The shares of active, inactive and inconclusive entries below differ from those in the screen. Calls come from the whole dose curve; as a rule, active = well fitted inhibition curve with a large enough effect; inconclusive = small, poorly fitted or top-dose-only effect, or effect the other way; inactive = flat fitted curve, though single readings scatter. Potencies of inconclusive entries are left out as doubtful fits.

Assay: VP16 counterscreen qHTS for inhibitors of ROR gamma transcriptional activity;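 note: Gal4-VP16 expression switched on by copper sulfate through the metallothionein promoter; nearly all actives have a fitted effect of over 50% in size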
Conditions: Drosophila S2 Gal4-VP16 UAS-luciferase, luminescence, 20 h; activity, negative = inhibition: at 53.6 µM (top of the series)
% is set by controls: 0 for no effect and ±100 for the full control effect; potency is the fitted concentration of half-maximal effect; tags give direction and shape of the fitted curve.

Compound	Potency	activity, negative = inhibition
Cc1ccccc1C(=O)N1CCN=C1SCc1ccc([N+](=O)[O-])cc1	inconclusive [inhibitor, single point]	
COc1ccc(/C=C2\C(=O)NC(=S)N2C(=O)c2ccc(C)cc2)cc1	inconclusive [inhibitor, single point]	
Oc1ccc(-c2csc(Nc3cccc4ccccc34)n2)cc1O	inconclusive [inhibitor, partial curve, poor fit]	
Cc1cc(C)cc(C(=O)O/N=C(\N)c2ccc(Br)cc2)c1	inconclusive [inhibitor, single point]	
NS(=O)(=O)c1ccc(NC(=O)c2ccc(S(=O)(=O)N3CCOCC3)o2)cc1		inactive: -10.9%
Cc1ccc(NC(=O)c2sc3ccccc3c2Cl)nc1	inconclusive [inhibitor, full curve, poor fit]	
Cc1cc(N2CCC(C)CC2)nc(-n2nc(C)cc2C)n1	active: 1.26 µM	
CCN1CCN(c2nc3c(C)cccn3c(=O)c2/C=C(\C#N)C(=O)NC)CC1		inactive: 1.96%
Nc1nc(N)c(N=Nc2ccc(S(N)(=O)=O)cc2)c(=O)[nH]1		inactive: 5.27%
COc1ccc(CNC2CC(C)N(C)CC2C)cc1OC (stereo unspecified)	inconclusive [activator, single point]	
Cn1c(-c2ccc3c(c2)OCO3)cnc1NC(=O)CCC(=O)NCCc1ccccc1	active: 5.62 µM	
Cc1nc(Nc2ccccc2)sc1-c1ccccc1	active: 11.2 µM	
COc1ccc2c(c1)O/C(=C\c1ccccc1C)C2=O	inconclusive [inhibitor, partial curve]	
O=C(/C=C/c1ccc(Cl)cc1)N1CCN(c2ccccc2[N+](=O)[O-])CC1		inactive: 2.7%
CCN(Cc1nc(-c2ccccc2)no1)C(=O)c1ccc2c(c1)OCO2		inactive: 2.09%
C=C(C)CNC(=S)N/N=C/c1ccc(NC(C)=O)cc1		inactive: 2.72%
COC(=O)c1ccc(-n2nnnc2SCC(=O)Nc2ccccc2F)cc1	inconclusive [inhibitor, partial curve]	
Cc1cc(/C=C(\C#N)C(=O)N2CCCCC2)cc(C)c1O	inconclusive [activator, single point]	
CCOC(=O)CCCCC(=O)c1[nH]c(=O)[nH]c1CSc1nnc2c3cc(Br)ccc3n(C)c2n1	inconclusive [inhibitor, single point]	
COc1ccc(CCNc2nc(-c3ccc(O)cc3)cs2)cc1OC	inconclusive [inhibitor, single point]	
O=C(Cn1cc(C(=O)c2cccs2)c2ccccc21)NCc1cccs1	inconclusive [activator, single point]	
O=c1cc[nH]c2c(Cl)cccc12	inconclusive [activator, single point]	
O=C(/C=C/c1ccc([N+](=O)[O-])cc1)NCCSc1ccccc1	inconclusive [inhibitor, single point]	
O=c1c2cc(N3CCOCC3)ccc2[nH]c(=S)n1CC1CCCO1 (stereo unspecified)	inconclusive [inhibitor, single point]	
CCOc1cc(NC(=S)NCC(C)C)c(OCC)cc1NC(=O)c1cccs1	active: 8.91 µM	
C=CCn1c(C(CCCC)CC(O)COCCC)n[nH]c1=S (stereo unspecified)	inconclusive [inhibitor, single point]	

Compound	Potency	activity, negative = inhibition
CN/N=C(\Cc1nc2ccccc2[nH]1)c1ccc([N+](=O)[O-])cc1	inconclusive [activator, single point]	
COc1ccc(C)cc1NC(=S)NNC(=O)c1ccccc1Cl		inactive: -9.17%
O=C(Nc1ccn(Cc2ccccc2F)n1)c1ccc(COc2ccccc2Cl)cc1		inactive: -20.3%
O=S1(=O)N[C@H](c2ccccc2)C[C@H](c2ccc(C(F)(F)F)cc2)O1		inactive: -2.51%
Cc1cccc(NC(=O)CN2CCC(C(=O)c3ccc4c(c3)OCCO4)CC2)c1	inconclusive [inhibitor, single point]	
CCOc1ccccc1NC(=S)NCc1cccn1C	active: 20 µM	
Cc1ccc(OCc2n[nH]c(=S)n2-c2ccccc2)cc1	inconclusive [inhibitor, single point]	
CCCCOc1cccc(-c2cc(C(=O)NNC(=S)NCC)c3ccccc3n2)c1	inconclusive [inhibitor, partial curve]	
COc1cccc(CNC(=O)CN2C(=O)COc3ccc(S(=O)(=O)N4CCCC4)cc32)c1		inactive: -12%
CCCCCOC(=O)CC(C(=O)OCCCCC)N1CCCCC1 (stereo unspecified)	inconclusive [inhibitor, single point]	
C=CCn1c(O)c(C=Nc2ccccc2)sc1=S	inconclusive [activator, full curve, poor fit]	
NC(=O)Nc1ccc(Nc2ccccc2)cc1		inactive: -5.55%
N#C/C(=C\c1cccs1)C(=O)Nc1nccs1	inconclusive [inhibitor, single point]	
COc1ccc(Nc2cc(NCCCO)c([N+](=O)[O-])c3nonc23)cc1		inactive: -21.4%
COC(=O)CC1Oc2cc3oc4c(c3cc2O1)C(=O)CC(C)(C)C4 (stereo unspecified)	inconclusive [inhibitor, partial curve]	
COc1ccc(OC)c(CCNC(=O)Cn2sc3nc(C)cc(C)c3c2=O)c1		inactive: -6.73%
CCC(C)[C@@H](N)C(=O)N/N=C/c1ccc2ncccc2c1 (stereo partly specified)	inconclusive [activator, single point]	
CC(C)(C)c1ccc(-c2noc(CCC(=O)NCc3ccco3)n2)cc1	active: 3.98 µM	
Cc1ccc(NC(=S)N(CCCN2CCCC2)Cc2cccn2Cc2ccc(Cl)cc2)cc1	inconclusive [inhibitor, single point]	
O=C(NN=C1CCCCCC1)c1ccc(Cl)s1	active: 12.6 µM	
Cc1ccsc1C(=O)Nc1ccc(C(=O)O)cc1	inconclusive [inhibitor, single point]	
CC1(C)C(=O)OC(c2cccn2-c2cccc([N+](=O)[O-])c2)C2(CCCCC2)C1=O (stereo unspecified)	inconclusive [inhibitor, single point]	
CS/C(N)=C(C#N)/C(C#N)=C(\N)SC		inactive: 2.12%
CCOC(=O)c1c(CSC(=N)N)n(-c2ccc(C)cc2)c2cc(Br)c(OC(C)=O)cc12	inconclusive [inhibitor, single point]	
Cc1cc(C)nc(S/C=C/C(=O)c2ccccc2)n1	active: 3.55 µM	
COc1ccc(OC)c(NC(=O)C2CCCN(S(=O)(=O)c3c(C)noc3C)C2)c1 (stereo unspecified)	inconclusive [inhibitor, partial curve, poor fit]	

Compound	Potency	activity, negative = inhibition
Cc1ccccc1NC(=O)CSc1nnc(-c2ccoc2C)n1CCc1ccccc1		inactive: 2.63%
Cc1ccc(-c2cc(-c3ccc(C)o3)nc(N)c2C#N)cc1	inconclusive [inhibitor, single point]	
O=S(=O)(/C=C/c1ccccc1)Oc1ccccc1	inconclusive [inhibitor, single point]	
CCCCNC(=O)Nc1nnc(-c2ccccc2)o1	active: 5.62 µM	
Cc1cccc2sc(N(CCCN(C)C)C(=O)COc3ccc(Cl)cc3)nc12	inconclusive [inhibitor, single point]	
COC(=O)c1cc(NC(=O)c2cccc(Cl)c2)c(=O)oc1/C=C/Nc1cc(C)cc(C)c1		inactive: -2.34%
CCn1c(=S)[nH]c2scc(-c3cccs3)c2c1=O	active: 3.16 µM	
C=C(C)CNC(=S)NNC(=O)CCn1c2cc(Cl)ccc2c2ccc(Cl)cc21	active: 8.91 µM	
COc1ccc(NC(=S)N2CCc3ccccc32)cc1OC	inconclusive [inhibitor, single point]	
CC(=O)Nc1nc(NC(=O)C(Cl)(Cl)Cl)n(-c2ccccc2)n1	active: 12.6 µM	
CCSc1nnc(NC(=O)C(C)Sc2nc3ccccc3[nH]2)s1 (stereo unspecified)	inconclusive [inhibitor, single point]	
Clc1ccc(-c2c[n+](Cc3ccc(Cl)c(Cl)c3)c3n2CCC3)cc1	inconclusive [inhibitor, single point]	
COc1cc2ccccc2cc1C(=O)NNC(=O)c1ccccc1O	inconclusive [inhibitor, single point]	
Cc1ccc(NC(=O)CSc2n[nH]c(-c3ccncc3)n2)cc1		inactive: 0.267%
COc1ccc(Cl)cc1NC(=S)NCCSc1ccc(C)cc1	active: 5.01 µM	
Cc1ccc(CC(Cc2nc3ccccc3[nH]2)c2nc3ccccc3[nH]2)cc1 (stereo unspecified)	inconclusive [inhibitor, single point]	
COc1ccccc1N=c1sc2ccccc2n1C	inconclusive [inhibitor, single point]	
CC(=O)c1cccc(NC(=S)NC(=O)c2ccc(Cl)cc2)c1	active: 8.91 µM	
COc1cccc(Nc2nc(N)nc(C(F)(F)F)n2)c1	inconclusive [activator, single point]	
CC(=O)c1cccc(NC(=O)Nc2ccc(C)cc2)c1	inconclusive [inhibitor, single point]	
Cc1c(C(=O)N2CCOCC2)sc(NC(=O)CCl)c1C#N	inconclusive [inhibitor, single point]	
CCSc1nc(=S)cc(C)[nH]1	inconclusive [inhibitor, single point]	
CCc1ccn2cc(-c3ccc4c(c3)OCO4)nc2c1	active: 4.47 µM	
Cc1c(Cl)c(C(F)F)nn1CC(=O)NC1C(=O)N2C(C(=O)O)=C(CSc3nnnn3C)CSC12 (stereo unspecified)		inactive: -6.93%
